# The other results are listed elsewhere or left out.
# Legend:
# Experiment in all cases: glycan array binding signal (z-score within array); higher = stronger binding
# Conditions in all cases: glycan notation: IUPAC condensed, linker removed
# [1] = target: Fuc(a1-3)[Gal3S(b1-4)]GlcNAc6S
# Procedure, shortened: (§1)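 Glycan array data came from 3228 arrays in the Consortium for Functional Glycomics database, and only arrays with an available protein sequence were kept. Glycan names were put into IUPAC-condensed notation, and columns mapping to the same glycan were averaged. The binding signal is a within-array Z-score, averaged across arrays of one protein sequence run at different concentrations or buffers and across linkers. A negative Z-score can be read as non-binding.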
# [2] = target: Fuc(a1-3)[GalNAc(b1-4)]GlcNAc
# Procedure, shortened: as §1
# [3] = target: Fuc(a1-3)[GalNAc(b1-4)]GlcNAc6S
# Procedure, shortened: as §1
# [4] = target: Fuc(a1-4)GlcNAc
# Procedure, shortened: as §1
# [5] = target: Fuc(b1-3)GlcNAc
# Procedure, shortened: as §1
# [6] = target: Gal(a1-2)Gal
# Procedure, shortened: as §1
# [7] = target: Gal(a1-3)Gal
# Procedure, shortened: as §1
# [8] = target: Gal(a1-3)Gal(b1-3)GlcNAc
# Procedure, shortened: as §1
# [9] = target: Gal(a1-3)Gal(b1-3)GlcNAc(b1-2)Man
# Procedure, shortened: as §1
# [10] = target: Gal(a1-3)Gal(b1-3)GlcNAc(b1-2)Man(a1-3)[Gal(a1-3)Gal(b1-3)GlcNAc(b1-2)Man(a1-6)]Man(b1-4)GlcNAc(b1-4)GlcNAc
# Procedure, shortened: as §1
# [11] = target: Gal(a1-3)Gal(b1-3)GlcNAc(b1-3)GalNAc
# Procedure, shortened: as §1
# [12] = target: Gal(a1-3)Gal(b1-3)GlcNAc(b1-6)GalNAc
# Procedure, shortened: as §1
# [13] = target: Gal(a1-3)Gal(b1-3)[Fuc(a1-4)]GlcNAc(b1-2)Man(a1-3)[Gal(a1-3)Gal(b1-3)[Fuc(a1-4)]GlcNAc(b1-2)Man(a1-6)]Man(b1-4)GlcNAc(b1-4)GlcNAc
# Procedure, shortened: as §1
# [14] = target: Gal(a1-3)Gal(b1-4)Glc
# Procedure, shortened: as §1
# [15] = target: Gal(a1-3)Gal(b1-4)GlcNAc
# Procedure, shortened: as §1
# [16] = target: Gal(a1-3)Gal(b1-4)GlcNAc(b1-2)Man
# Procedure, shortened: as §1
# [17] = target: Gal(a1-3)Gal(b1-4)GlcNAc(b1-2)Man(a1-3)[Gal(a1-3)Gal(b1-4)GlcNAc(b1-2)Man(a1-6)]Man(b1-4)GlcNAc(b1-4)GlcNAc
# Procedure, shortened: as §1
# [18] = target: Gal(a1-3)Gal(b1-4)GlcNAc(b1-3)GalNAc
# Procedure, shortened: as §1
# [19] = target: Gal(a1-3)Gal(b1-4)GlcNAc(b1-6)GalNAc
# Procedure, shortened: as §1
# [20] = target: Gal(a1-3)Gal(b1-4)[Fuc(a1-3)]GlcNAc
# Procedure, shortened: as §1
# [21] = target: Gal(a1-3)Gal(b1-4)[Fuc(a1-3)]GlcNAc(b1-2)Man(a1-3)[Gal(a1-3)Gal(b1-4)[Fuc(a1-3)]GlcNAc(b1-2)Man(a1-6)]Man(b1-4)GlcNAc(b1-4)GlcNAc
# Procedure, shortened: as §1
# [22] = target: Gal(a1-3)GalNAc
# Procedure, shortened: as §1
# [23] = target: Gal(a1-3)[Gal(a1-4)]Gal(b1-4)GlcNAc
# Procedure, shortened: as §1
# [24] = target: Gal(a1-4)Gal(b1-3)GlcNAc(b1-2)Man(a1-3)[Gal(a1-4)Gal(b1-3)GlcNAc(b1-2)Man(a1-6)]Man(b1-4)GlcNAc(b1-4)GlcNAc
# Procedure, shortened: as §1
# [25] = target: Gal(a1-4)Gal(b1-4)Glc
# Procedure, shortened: as §1
# [26] = target: Gal(a1-4)Gal(b1-4)GlcNAc
# Procedure, shortened: as §1
# [27] = target: Gal(a1-4)Gal(b1-4)GlcNAc(b1-2)Man(a1-3)[Gal(a1-4)Gal(b1-4)GlcNAc(b1-2)Man(a1-6)]Man(b1-4)GlcNAc(b1-4)GlcNAc
# Procedure, shortened: as §1
# [28] = target: Gal(a1-4)Gal(b1-4)GlcNAc(b1-3)Gal(b1-4)Glc
# Procedure, shortened: as §1
# [29] = target: Gal(a1-4)GlcNAc
# Procedure, shortened: as §1
# [30] = target: Gal(a1-6)Glc
# Procedure, shortened: as §1
# [31] = target: Gal(b1-2)Gal
# Procedure, shortened: as §1
# [32] = target: Gal(b1-3)Gal
# Procedure, shortened: as §1
# [33] = target: Gal(b1-3)Gal(b1-4)GlcNAc
# Procedure, shortened: as §1
# [34] = target: Gal(b1-3)GalNAc
# Procedure, shortened: as §1
# [35] = target: Gal(b1-3)GalNAc(a1-3)[Fuc(a1-2)]Gal(b1-4)Glc
# Procedure, shortened: as §1
# [36] = target: Gal(b1-3)GalNAc(a1-3)[Fuc(a1-2)]Gal(b1-4)GlcNAc
# Procedure, shortened: as §1
# [37] = target: Gal(b1-3)GalNAc(b1-3)Gal
# Procedure, shortened: as §1
binder,measurement,setting,value
GS7807E-bfa-538-23-538 (Bacteroides fragilis) (protein) TDSFESFNTNEAGFDNDSKKQDFNYYGIPLGIIQQGIYFNYDWGSGKNWPFQTMQNLGADLFSGYVHDFNPFNEGKNNSTYYMMDGWNGSTWDNTYGYIMPEVQKSETINEKDNIGFFGITKILKVELMHRLSDLYGPIVYTQFGSKTGSTPDTQQEAYKAFFNDLDTGIAKIREYQKANPDIESFAKFDILMPQGKRTFSEWIRFANSLRLRLAVRIAMADSKLAVAEAQKALTDEEGLLEGNDEVVAVSTSSGYTNPFGEINKAWGEVFMNANMESLLVGYEDPRMEKYFDKATGSDATSLIDYKGTYKGIRQGTGFSHKNYNGHSKSTITQQTDAVLMTPAEVWFLRAEAALRGWSSESVKDCYEKGVKASFAQWGAAGAEAYLESDRKPSDYVDAFKAANNVKAVNTLTPKWDDAAGNEDKLGRIITQKWLAMFPEGGEAWAEQRRTGYPRLFPVLVNQSEGTVDTNLGPRRLNFFVGIKTTNPEQYTQLVNALGGIDNCGTRLWWDTGRNF,glycan array binding signal (z-score),[1],1.58
same,glycan array binding signal (z-score),[2],-0.084
same,glycan array binding signal (z-score),[3],1.13
same,glycan array binding signal (z-score),[4],-0.688
same,glycan array binding signal (z-score),[5],-0.707
same,glycan array binding signal (z-score),[6],0.195
same,glycan array binding signal (z-score),[7],0.113
same,glycan array binding signal (z-score),[8],-0.602
same,glycan array binding signal (z-score),[9],-0.504
same,glycan array binding signal (z-score),[10],1.55
same,glycan array binding signal (z-score),[11],0.529
same,glycan array binding signal (z-score),[12],0.428
same,glycan array binding signal (z-score),[13],10.5
same,glycan array binding signal (z-score),[14],-0.019
same,glycan array binding signal (z-score),[15],-0.195
same,glycan array binding signal (z-score),[16],-0.548
same,glycan array binding signal (z-score),[17],1
same,glycan array binding signal (z-score),[18],1.27
same,glycan array binding signal (z-score),[19],0.296
same,glycan array binding signal (z-score),[20],1.36
same,glycan array binding signal (z-score),[21],0.62
same,glycan array binding signal (z-score),[22],-0.323
same,glycan array binding signal (z-score),[23],0.869
same,glycan array binding signal (z-score),[24],0.984
same,glycan array binding signal (z-score),[25],1.11
same,glycan array binding signal (z-score),[26],0.333
same,glycan array binding signal (z-score),[27],0.087
same,glycan array binding signal (z-score),[28],-0.087
same,glycan array binding signal (z-score),[29],-0.696
same,glycan array binding signal (z-score),[30],-0.29
same,glycan array binding signal (z-score),[31],-0.253
same,glycan array binding signal (z-score),[32],0.016
same,glycan array binding signal (z-score),[33],-0.433
same,glycan array binding signal (z-score),[34],0.058
same,glycan array binding signal (z-score),[35],-0.377
same,glycan array binding signal (z-score),[36],-0.39
same,glycan array binding signal (z-score),[37],0.209
